Results reported in PMC5895073, “Cell polarity protein Spa2 coordinates Chs2 incorporation at the division site in budding yeast” (PLoS Genetics, 2018).
Results are given in words; binding and its absence hold for the method and conditions named. For part of these data: Binding seen in cells or lysates may run through a third protein. Some binding calls cover weakened binding; strength is not graded here. For part of these data: Sequences can lack the tags named with a protein. Values belong to the molecule of their own block, whether it stands above or below them.

Chains of the proteins cited; added tags and fusions are not shown.
UniProt P19524: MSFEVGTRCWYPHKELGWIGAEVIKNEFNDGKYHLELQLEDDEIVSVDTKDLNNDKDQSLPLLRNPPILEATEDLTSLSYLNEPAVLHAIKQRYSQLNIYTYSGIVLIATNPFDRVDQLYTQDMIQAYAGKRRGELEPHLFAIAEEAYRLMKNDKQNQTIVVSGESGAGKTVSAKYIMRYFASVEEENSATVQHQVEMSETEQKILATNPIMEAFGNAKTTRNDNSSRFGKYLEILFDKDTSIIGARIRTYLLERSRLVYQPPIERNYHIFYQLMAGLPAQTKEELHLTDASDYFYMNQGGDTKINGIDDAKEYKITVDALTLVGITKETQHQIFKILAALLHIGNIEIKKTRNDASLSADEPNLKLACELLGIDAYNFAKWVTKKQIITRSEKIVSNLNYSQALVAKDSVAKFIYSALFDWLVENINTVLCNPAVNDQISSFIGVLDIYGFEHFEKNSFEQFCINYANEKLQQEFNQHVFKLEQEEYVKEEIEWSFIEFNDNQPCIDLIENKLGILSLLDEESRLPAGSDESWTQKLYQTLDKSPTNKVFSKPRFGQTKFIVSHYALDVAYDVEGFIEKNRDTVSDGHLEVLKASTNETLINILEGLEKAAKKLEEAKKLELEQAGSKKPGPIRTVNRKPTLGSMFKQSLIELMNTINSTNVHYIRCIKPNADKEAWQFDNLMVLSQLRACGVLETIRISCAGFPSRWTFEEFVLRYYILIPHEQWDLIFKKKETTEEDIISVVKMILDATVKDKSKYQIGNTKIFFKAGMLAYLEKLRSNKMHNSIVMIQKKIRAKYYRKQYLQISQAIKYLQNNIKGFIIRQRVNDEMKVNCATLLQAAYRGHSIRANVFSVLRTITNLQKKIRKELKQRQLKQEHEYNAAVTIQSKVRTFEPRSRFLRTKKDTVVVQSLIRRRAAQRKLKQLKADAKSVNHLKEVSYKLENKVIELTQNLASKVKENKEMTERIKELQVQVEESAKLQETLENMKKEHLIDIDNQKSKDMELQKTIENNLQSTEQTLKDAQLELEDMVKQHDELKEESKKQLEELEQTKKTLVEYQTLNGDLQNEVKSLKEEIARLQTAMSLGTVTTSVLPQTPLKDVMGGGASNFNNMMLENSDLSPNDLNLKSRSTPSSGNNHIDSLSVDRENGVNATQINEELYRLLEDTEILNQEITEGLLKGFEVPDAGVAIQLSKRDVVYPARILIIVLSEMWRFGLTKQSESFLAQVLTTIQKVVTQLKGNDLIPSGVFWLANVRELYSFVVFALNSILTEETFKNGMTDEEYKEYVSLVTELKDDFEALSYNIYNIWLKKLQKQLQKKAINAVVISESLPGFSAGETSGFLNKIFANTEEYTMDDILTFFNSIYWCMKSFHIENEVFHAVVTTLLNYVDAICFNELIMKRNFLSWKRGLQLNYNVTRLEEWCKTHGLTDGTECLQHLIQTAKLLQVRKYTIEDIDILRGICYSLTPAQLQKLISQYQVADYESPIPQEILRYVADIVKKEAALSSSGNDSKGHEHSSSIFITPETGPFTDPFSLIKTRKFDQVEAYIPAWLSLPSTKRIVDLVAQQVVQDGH

How the values were obtained:
Inn1-TAP (S. cerevisiae) = target: T1, Inn1-TAP (S. cerevisiae) (UniProt P53901); test: co-IP; yeast cell extract, cells released 90 min from G1 in YPD at 24°C (cytokinesis); Inn1-TAP on IgG beads; immunoblot
T1 sequence: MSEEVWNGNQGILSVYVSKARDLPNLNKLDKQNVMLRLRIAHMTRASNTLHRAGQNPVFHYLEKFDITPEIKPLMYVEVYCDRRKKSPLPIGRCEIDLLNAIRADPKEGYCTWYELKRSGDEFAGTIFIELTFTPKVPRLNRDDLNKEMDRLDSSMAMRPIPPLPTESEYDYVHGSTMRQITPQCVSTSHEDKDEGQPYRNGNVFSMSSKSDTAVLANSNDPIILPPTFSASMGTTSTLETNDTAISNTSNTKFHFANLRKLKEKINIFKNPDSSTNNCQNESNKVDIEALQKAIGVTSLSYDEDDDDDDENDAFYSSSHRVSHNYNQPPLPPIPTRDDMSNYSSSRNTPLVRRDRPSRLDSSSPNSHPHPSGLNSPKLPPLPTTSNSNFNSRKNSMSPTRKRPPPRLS

[1] = target: T2, Strep-tag-SH3-Hof1 (S. cerevisiae) (UniProt Q05080); test: pull-down; pairs of E. coli cultures mixed, one cell extract; Strep-tagged protein isolated on Strep-Tactin Superflow resin, eluted with 2.5 mM d-desthiobiotin; immunoblot with anti-Strep and anti-His
T2 sequence: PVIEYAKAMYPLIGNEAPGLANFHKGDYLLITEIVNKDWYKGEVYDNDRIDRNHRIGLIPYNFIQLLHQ

[2] = target: T3, Strep-tag-Chs2-215-629 (S. cerevisiae) (UniProt P14180); test: as above
T3 sequence: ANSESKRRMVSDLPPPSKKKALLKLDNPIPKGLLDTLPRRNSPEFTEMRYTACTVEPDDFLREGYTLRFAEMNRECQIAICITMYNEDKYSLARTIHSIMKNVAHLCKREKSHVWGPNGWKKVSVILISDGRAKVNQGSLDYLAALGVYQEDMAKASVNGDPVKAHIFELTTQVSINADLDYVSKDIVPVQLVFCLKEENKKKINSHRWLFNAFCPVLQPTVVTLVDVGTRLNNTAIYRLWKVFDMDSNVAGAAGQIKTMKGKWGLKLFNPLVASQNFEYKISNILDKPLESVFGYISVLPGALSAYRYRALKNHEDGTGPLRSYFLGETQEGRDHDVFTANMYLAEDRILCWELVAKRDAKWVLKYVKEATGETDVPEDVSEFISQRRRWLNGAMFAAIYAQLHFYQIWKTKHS

[3] = target: T4, Strep-tag-Hof1-1-300 (S. cerevisiae) (UniProt Q05080); test: as above
T4 sequence: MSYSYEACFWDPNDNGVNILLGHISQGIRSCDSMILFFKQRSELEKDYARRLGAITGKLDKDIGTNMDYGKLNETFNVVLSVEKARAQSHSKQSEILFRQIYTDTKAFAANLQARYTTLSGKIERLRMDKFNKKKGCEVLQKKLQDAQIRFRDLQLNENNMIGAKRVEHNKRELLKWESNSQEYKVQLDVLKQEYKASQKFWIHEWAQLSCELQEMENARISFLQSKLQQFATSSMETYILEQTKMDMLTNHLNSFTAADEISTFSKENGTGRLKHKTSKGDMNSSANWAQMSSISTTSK

[4] = target: T5, Strep-tag-Cyk3-SH3 (S. cerevisiae) (UniProt Q07533); test: as above
T5 sequence: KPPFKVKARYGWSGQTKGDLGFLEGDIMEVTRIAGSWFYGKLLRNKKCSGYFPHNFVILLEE

[5] = target: Strep-tag-Spa2-1-552 (S. cerevisiae) (UniProt P23201); test: as above
[6] = target: Spa2-1-145 (S. cerevisiae) (UniProt P23201); test: two-hybrid; vectors pGADT7 and pGBKT7; growth at 30°C on SC medium lacking leucine, tryptophan and histidine (selective), 3-4 days
[7] = target: Spa2-421-552 (S. cerevisiae) (UniProt P23201); test: as above
[8] = target: T6, Spa2-553-1466 (S. cerevisiae) (UniProt P23201); test: as above
T6 sequence: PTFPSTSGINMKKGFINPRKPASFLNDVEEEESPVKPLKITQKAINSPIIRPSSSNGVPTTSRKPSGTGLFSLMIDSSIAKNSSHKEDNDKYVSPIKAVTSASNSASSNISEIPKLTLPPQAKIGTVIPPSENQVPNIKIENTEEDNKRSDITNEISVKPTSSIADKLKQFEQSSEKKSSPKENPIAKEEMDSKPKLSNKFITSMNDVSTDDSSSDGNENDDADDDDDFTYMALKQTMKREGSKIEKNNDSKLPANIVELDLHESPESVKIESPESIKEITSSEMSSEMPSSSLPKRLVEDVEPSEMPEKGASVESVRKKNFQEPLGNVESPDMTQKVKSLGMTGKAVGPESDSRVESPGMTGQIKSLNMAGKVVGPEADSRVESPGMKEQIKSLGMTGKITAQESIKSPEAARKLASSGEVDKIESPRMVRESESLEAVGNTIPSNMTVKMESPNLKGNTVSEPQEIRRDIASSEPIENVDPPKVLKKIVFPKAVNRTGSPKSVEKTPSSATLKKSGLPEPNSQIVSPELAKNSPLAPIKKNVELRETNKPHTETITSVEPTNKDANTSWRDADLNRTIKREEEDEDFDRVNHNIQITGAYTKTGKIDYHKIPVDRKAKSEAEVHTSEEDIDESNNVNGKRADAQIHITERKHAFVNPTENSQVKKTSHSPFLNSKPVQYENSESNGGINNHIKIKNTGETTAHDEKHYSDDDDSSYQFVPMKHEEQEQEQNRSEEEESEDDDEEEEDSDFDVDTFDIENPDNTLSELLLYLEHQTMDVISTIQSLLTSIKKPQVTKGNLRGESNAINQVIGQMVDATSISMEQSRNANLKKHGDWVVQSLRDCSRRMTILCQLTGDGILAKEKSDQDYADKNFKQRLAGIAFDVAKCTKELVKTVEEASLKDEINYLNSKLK

- binding (Inn1-TAP (S. cerevisiae)): binds
Molecule: Myo2-5FLAG (from UniProt P19524 1-1574)

- binding [1]: binds
- binding [2]: binds
- binding [3]: binds
- binding [4]: binds
Molecule: 6His-Spa2-1-552 (from UniProt P23201 1-552) (domain or fragment)

- binding [5]: binds
B1: 6His-Cyk3-475-885 (domain or fragment, UniProt Q07533 475-885)
chain: ARYSTVLEKLRGIYIFCTEMFALTDDNGTSDFSAEPQNLEKILYRKHCTPYELTWLFKKLANSLGITCEIVIGFLKTPSAINWEFKYNHCWLRILVNKEWRFIDVILGNVTNPIHEFVNNRKIKKAENSYFLMAPLEMIYTHIPPREFEQHIVPSIDQLSALYLPLVFPSFFKNELKLYKFSTALSFLEDSEIYECSLEIPNDVEVFASVVIPTDNEEASSAYRNMELALTQIKKQKAESGRRIALIKAVLPPNVNKGSLYIHSGVRGTQTSIANIHPLSMMVPLTHKGSNMKYEFVIKIPSESIQKIELYIVEPQSRYLFVGNEYSFEVIQSPSDGIVYSSDEGPNQNRKQPMAIKSPSGRVHELVKSDPHFPYGTWKGSIKIKEPGVWSALVIADSGIGWSVFAEWLCV

- binding [6]: binds
- binding [7]: binds
B2: Chs2-215-629 (two-hybrid) (domain or fragment, UniProt P14180 215-629)
chain: T3 sequence

- binding [8]: binds
B3: Hof1 (two-hybrid construct of Fig 5E) (protein, UniProt Q05080 1-669)
chain: MSYSYEACFWDPNDNGVNILLGHISQGIRSCDSMILFFKQRSELEKDYARRLGAITGKLDKDIGTNMDYGKLNETFNVVLSVEKARAQSHSKQSEILFRQIYTDTKAFAANLQARYTTLSGKIERLRMDKFNKKKGCEVLQKKLQDAQIRFRDLQLNENNMIGAKRVEHNKRELLKWESNSQEYKVQLDVLKQEYKASQKFWIHEWAQLSCELQEMENARISFLQSKLQQFATSSMETYILEQTKMDMLTNHLNSFTAADEISTFSKENGTGRLKHKTSKGDMNSSANWAQMSSISTTSKKTESYMDNIRKLSSQLKETENKRKLASIDKYEKPLPSPEVTMATQFRNSTPVIRNETKVVANPTLSLRSSPVQLQSNVDDSVLRQKPDKPRPIVGEEQLKPDEDSKNPDEKGLMVHKRNQSLSSPSESSSSNPTDFSHIKKRQSMESMTTSVSSMANSIDDSQRFAKSWNSSNRKRKSMSHLQVPSSASSRSDDGGRTPNSAHNLNEDDYNTRRDTSTSTILFKPPVAVRGTSRGHTHRQSMIMQDSSNPIEDALYEMERIQSSSKPGTKTGNIMDERGVVRDRGITVTLPIVTSEGFPVIEYAKAMYPLIGNEAPGLANFHKGDYLLITEIVNKDWYKGEVYDNDRIDRNHRIGLIPYNFIQLLHQGL
